# Laboratory results reported in PubChem BioAssay AID1030 (National Center for Advancing Translational Sciences (NCATS), 2008).
# Several values for one entry are separate records, joined by “and”; a condition that tells them apart may be missing. Equal entries are not always repeated. The whole screen tested about 220,000 compounds, of which about 16,000 (7.3%) were called active. Inconclusive results, whose numbers are uncertain, are shown with a selection of clear calls. Calls follow the shape of the dose curve; as a rule, active = well fitted inhibition curve with a large enough effect (not every such curve was filed as active); inconclusive = small, poorly fitted or top-dose-only effect, or another doubt; inactive = no such curve, though single readings can be large or run the other way. Potencies of inconclusive entries are doubtful fits and often do not repeat. Some structures have more than one record in an assay (separate samples or runs), and their calls can disagree.
# Biological target: Aldehyde dehydrogenase 1A1 (Homo sapiens) (UniProt P00352)
# Assay: qHTS Assay for Inhibitors of Aldehyde Dehydrogenase 1 (ALDH1A1);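 as to activity, negative = inhibition: plate controls were no enzyme wells and a reference inhibitor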
# Conditions: Purified ALDH1A1, NADH fluorescence, propionaldehyde substrate; series mostly up to 75.3 µM
# Potency is read from the fitted curve at half-maximal effect; tags tell the direction and shape of the fitted curve.
# Chain of UniProt P00352 (P00352 whole entry, looked up): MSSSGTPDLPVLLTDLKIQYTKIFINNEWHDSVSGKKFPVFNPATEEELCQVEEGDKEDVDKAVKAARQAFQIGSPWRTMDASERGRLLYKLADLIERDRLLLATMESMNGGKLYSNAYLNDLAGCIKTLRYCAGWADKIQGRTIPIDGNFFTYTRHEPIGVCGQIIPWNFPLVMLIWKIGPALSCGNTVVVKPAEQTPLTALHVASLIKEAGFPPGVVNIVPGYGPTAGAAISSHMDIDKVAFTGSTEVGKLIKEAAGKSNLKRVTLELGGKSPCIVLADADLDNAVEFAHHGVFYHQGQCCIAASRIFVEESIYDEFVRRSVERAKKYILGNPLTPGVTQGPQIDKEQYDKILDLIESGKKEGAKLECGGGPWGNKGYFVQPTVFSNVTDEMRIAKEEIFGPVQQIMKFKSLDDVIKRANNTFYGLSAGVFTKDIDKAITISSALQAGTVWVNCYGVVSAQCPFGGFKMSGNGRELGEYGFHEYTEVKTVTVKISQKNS
Structure (SMILES),Potency,"activity, negative = inhibition"
COc1ccc2c3c1O[C@H]1C(=O)CC[C@@]4(O)C(C2)N(CC2CC2)CCC314 (some centres undefined),"inactive and inconclusive: 37.7 µM [inhibitor, single point]",–
Cc1cc(Cl)ccc1C(=O)C1CCCN(C2CCSCC2)C1 (centres undefined),"inconclusive: 39.8 µM [inhibitor, single point]",–
COc1cc2c(cc1O)CC1c3c(cc(O)c(OC)c3-2)CCN1C (centres undefined),"inconclusive: 28.2 µM [inhibitor, partial curve] and inconclusive: 31.6 µM [inhibitor, partial curve]",–
Cc1ccc(-c2nc3ccccc3c(=O)n2-c2ccncc2)cc1,"inconclusive: 28.2 µM [inhibitor, single point]",–
O=C(c1ccccc1)c1ccc(N=Nc2c(O)[nH]c(=O)[nH]c2=O)cc1,"inconclusive: 8.91 µM [inhibitor, partial curve]",–
CCC(C)NC(=O)c1c(N)n(CC2CCCO2)c2nc3ccccc3nc12 (centres undefined),"inconclusive: 31.6 µM [inhibitor, partial curve]",–
O=C(O)[C@@H]1C[C@H]2C[C@@H](CP(=O)(O)O)CC[C@H]2CN1,inactive,–
O=c1c2ccccc2nc(-c2ccc(Cl)cc2Cl)n1-c1ccncc1,inactive,–
CCc1ccc(-n2c(O)c(/C=N/NC(=O)c3ccncc3)c(=O)[nH]c2=O)cc1,"inconclusive: 39.8 µM [inhibitor, single point]",–
c1ccc(C(c2ccccc2)N2CCN(c3ccc4ccccc4n3)CC2)cc1,"inconclusive: 37.7 µM [inhibitor, single point]",–
CCCCN1C(=O)NC(=O)C2(Cc3cc(C)ccc3N(C)C2)C1=O (centres undefined),active: 10 µM,–
Nc1cccc2ccccc12,"inconclusive: 20 µM [inhibitor, partial curve]",–
CCCCC/C=C\C/C=C\C/C=C\C/C=C\CCCC(=O)NC1CC1,"inconclusive: 39.8 µM [inhibitor, single point]",–
O=C(C/C=N\OCc1c(Cl)cccc1Cl)Oc1ccc(Cl)cc1Cl,"inconclusive: 39.8 µM [inhibitor, single point]",–
O=c1[nH]c(=O)n(Cc2ccco2)c(O)c1C=NCc1ccco1,active: 10 µM,–
CCN(CC)C(=O)c1c(C)[nH]c(=S)c(C#N)c1-c1ccco1,active: 7.08 µM,–
CN1CC[C@@]2(CCCN(C(=O)Oc3ccccc3)C2)C1,inactive,–
Cc1ccc2c(c1)=C/C(=C\c1c(O)[nH]c(=O)[nH]c1=O)C(=O)N=2,active: 1.58 µM,–
CC(C)Cn1cc(C(=O)N2CCC3(CC2)OCCO3)c2c3ccccc3n(C)c2c1=O,"inconclusive: 28.2 µM [inhibitor, partial curve]",–
NC(=S)c1cn(C2OC(CO)C(O)C2O)c2ncnc(N)c12 (centres undefined),active: 7.94 µM,–
Clc1cccc(Cl)c1CN1CCN(c2ccccc2)CC1,"inconclusive: 39.8 µM [inhibitor, single point]",–
C[C@H]1COC2=C1C(=O)C(=O)c1c2ccc2c1CCCC2(C)C,active: 12.6 µM,–
Cc1ccc2[nH]c3c(c2c1)CN(C(=O)CN1CCSCC1)CC3,"inconclusive: 37.7 µM [inhibitor, single point]",–

Structure (SMILES),Potency,"activity, negative = inhibition"
COC1=CC(=O)OC(CCc2ccc3c(c2)OCO3)C1 (centres undefined),"inconclusive: 11.2 µM [inhibitor, partial curve]",–
Cc1nc2cc(C(F)(F)F)ccc2n1C1CCN(Cc2nnnn2Cc2cccs2)CC1,"inconclusive: 44.7 µM [inhibitor, single point]",–
COc1ccc(-c2nc(CSCC(=O)N3CCC4(CC3)OCCO4)c(C)o2)cc1OC,"inconclusive: 28.2 µM [inhibitor, partial curve]",–
COC(=O)C1=C(N)Oc2cc(C)oc(=O)c2C12C(=O)Nc1ccccc12 (centres undefined),"inconclusive: 20 µM [inhibitor, partial curve]",–
O=C(Nc1cccc(OC(=O)N2CCOCC2)c1)N1CCOCC1,inactive,–
CC(C)Oc1ccc(C2C(C#N)=C(N)Oc3c2c(=O)oc2ccccc32)cc1 (centres undefined),"inconclusive: 15.8 µM [inhibitor, partial curve]",–
CCN(CC)S(=O)(=O)c1ccc(C)c(NCC(=O)Nc2ccc(C#N)c(Cl)c2)c1,"inconclusive: 39.8 µM [inhibitor, single point]",–
O=C(Cc1ccccc1)N1CCN(Cc2ccc([N+](=O)[O-])cc2)CC1,"inconclusive: 39.8 µM [inhibitor, single point]",–
NC(=O)c1ncn([C@@H]2O[C@H](CO)[C@@H](O)[C@H]2O)n1,active: 25.1 µM,–
O=c1c2ccccc2nc(-c2ccco2)n1-c1ccccc1,inactive,–
CC(C)(C)c1ccccc1O,active: 31.6 µM,–
O=C1NCN(c2ccccc2)C12CCN(C[C@H]1COc3ccccc3O1)CC2,inactive,–
CC(C)=C[C@H]1[C@@H](C(=O)OCc2cc3c(cc2Cl)OCO3)C1(C)C,–,inactive: -13.4% [at 13.5 µM]
Cc1c(C(=O)N2CCOCC2)sc2nc(-c3ccccc3)cn12,"inconclusive: 7.08 µM [inhibitor, single point]",–
CN[C@H](CC(C)C)C(=O)N[C@H]1C(=O)N[C@@H](CC(N)=O)C(=O)N[C@H]2C(=O)N[C@H]3C(=O)N[C@H](C(=O)N[C@H](C(=O)O)c4cc(O)cc(O)c4-c4cc3ccc4O)[C@H](O)c3ccc(c(Cl)c3)Oc3cc2cc(c3O[C@@H]2O[C@H](CO)[C@@H](O)[C@H](O)[C@H]2O[C@H]2C[C@](C)(N)[C@H](O)[C@H](C)O2)Oc2ccc(cc2Cl)[C@H]1O,"inconclusive: 0.0045 µM [inhibitor, full curve, poor fit]",–
CCCC[N+]1(C)C2CC(OC(=O)C(CO)c3ccccc3)CC1C1OC12 (centres undefined),inactive,–
O=C1NC(=O)C2(Cc3ccccc3N3CCCC32)C(=O)N1c1ccccc1 (centres undefined),"inconclusive: 39.8 µM [inhibitor, single point]",–
CC(=O)OCC(=O)[C@@H]1CC[C@H]2[C@H]3CC[C@H]4C[C@@H](O)CC[C@]4(C)[C@@H]3C(=O)C[C@@]12C,inactive,–
COC(=O)CCC(=O)Nc1sc(Cc2ccccc2)c(C)c1C(N)=O,active: 2 µM,–
CC(C)=CCSc1nnc([C@@H](N)Cc2c[nH]c3ccccc23)o1,"inconclusive: 31.6 µM [inhibitor, single point]",–
COc1ccc2c(c1)CCC1C2CC[C@@]2(C)C1CC[C@@H]2NCCCCCCN1C(=O)C=CC1=O (some centres undefined),active: 0.501 µM,–
S=C1CN=C(c2ccccc2)c2cc(Cl)ccc2N1,"inconclusive: 37.7 µM [inhibitor, single point]",–
C=CCN1CC[C@@]2(C)c3cc(O)ccc3CC1[C@@H]2C,inactive,–

Structure (SMILES),Potency,"activity, negative = inhibition"
COc1cc(CN2C(=O)NC(=O)C3(Cc4cc(C)ccc4N(C)C3)C2=O)cc(OC)c1 (centres undefined),"inconclusive: 31.6 µM [inhibitor, single point]",–
O=C1C2C3CCC(C3)C2C(=O)N1c1ccc(OS(=O)(=O)c2ccccc2)cc1 (centres undefined),"inconclusive: 22.4 µM [inhibitor, partial curve]",–
CN1C(=O)C(=Cc2ccc(OCCN(C)c3ccccn3)cc2)C(=O)N(C)C1=O,active: 7.94 µM,–
CS(=O)(=O)N1CCC2(CCCN(Cc3ccncc3)C2)CC1,inactive,–
O=[N+]([O-])c1ccccc1CNCCc1ccc(F)cc1,"inconclusive: 35.5 µM [inhibitor, single point]",–
Cc1ccc(N=C=O)cc1N=C=O,inactive,–
CC(=O)Nc1ccc(S(=O)(=O)N2CCSC2c2ccc(C)cc2)cc1 (centres undefined),"inconclusive: 14.1 µM [inhibitor, partial curve]",–
CCc1nc2ccccc2c(=O)n1-c1ccccc1[N+](=O)[O-],"inconclusive: 39.8 µM [inhibitor, single point]",–
CC1C(=O)OC2CCN3CC=C(COC(=O)[C@](C)(O)[C@]1(C)O)C23 (some centres undefined),inactive,–
Cc1[nH]nc2c1C1(CCC3(CC1)OCCO3)C(C#N)=C(N)O2,"inconclusive: 15.8 µM [inhibitor, single point]",–
CCCC[N+](=O)[O-],"inconclusive: 39.8 µM [inhibitor, single point]",–
CN1C(=O)/C(=C\c2ccc(N3CCCCC3)o2)C(=O)NC1=S,"inconclusive: 39.8 µM [inhibitor, single point]",–
CCOP(=O)(OCC)C(NC(=O)c1ccc(C)cc1)=C(Cl)Cl,inactive,–
O=C(Nc1cccc(F)c1)N1CC2(CCN(C(=O)Oc3ccccc3)CC2)C1,inactive,–
Cc1ccc(S(=O)(=O)NC(CC(=O)N2CCC3(CC2)OCCO3)c2ccco2)cc1 (centres undefined),active: 12.6 µM,–
CCOc1ccc(N=Cc2c(O)n(C(C)(C)C)c(=O)[nH]c2=O)cc1,"inconclusive: 17.8 µM [inhibitor, partial curve]",–
CCC(=NCCc1ccccc1)c1c(O)n(C2CCCCC2)c(=O)[nH]c1=O,"inconclusive: 10 µM [inhibitor, partial curve]",–
O=C(O)c1[nH]c(=O)[nH]c(=O)c1F,inactive,–
CCCCC/C=C\C/C=C\C/C=C\C/C=C\CCCC(=O)NCCc1ccc(O)c(O)c1,active: 15.8 µM,–
COC(=O)C1C/C(=N\NS(=O)(=O)c2ccc(C)cc2)c2sccc2C1 (centres undefined),"inconclusive: 2.82 µM [inhibitor, partial curve]",–
O=C(Nc1cccc(F)c1)N1CC[C@@]2(CCCN(C(=O)Oc3ccccc3)C2)C1,"inconclusive: 39.8 µM [inhibitor, single point]",–
NC(N)=NCCN=C(N)N,–,inactive: -7.93% [at 13.5 µM]
CC(C)CC(NP(=O)(O)O[C@@H]1O[C@@H](C)[C@H](O)[C@@H](O)[C@H]1O)C(=O)NC(Cc1c[nH]c2ccccc12)C(=O)O (some centres undefined),inactive,–
